The text below walks through data of PMC7819943, “Rice protein-binding microarrays: a tool to detect cis-acting elements near promoter regions in rice”.

Some of the results follow.

For the assay, the target named is T1, OsWOX13 (Oryza sativa, UniProt Q5QMM3 1-267).
T1 sequence: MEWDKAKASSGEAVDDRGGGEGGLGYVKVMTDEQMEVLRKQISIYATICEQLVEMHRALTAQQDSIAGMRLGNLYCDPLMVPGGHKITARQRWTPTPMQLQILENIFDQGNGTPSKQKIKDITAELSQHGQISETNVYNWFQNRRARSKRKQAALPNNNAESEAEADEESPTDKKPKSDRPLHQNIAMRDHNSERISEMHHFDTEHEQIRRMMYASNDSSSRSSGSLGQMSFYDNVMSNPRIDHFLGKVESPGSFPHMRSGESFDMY
Briefly: protein-binding microarray (RPBM); PBS, 2% BSA, 51.3 ng/ul salmon testes DNA, 50 uM zinc acetate, 200 nM TF, 25 C, 1 h; high values mean tight binding. As to conditions: protein: recombinant; tags: N-terminal polyhistidine and DsRed monomer fusion (pET32a); label: CyDye5-dUTP incorporated in the synthesized complementary strand; 3' TTTTT single-stranded linker to array surface; dsDNA, one strand shown. The method in brief:
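Using Ni–NTA, transcription factors fused N-terminally to polyhistidine and DsRed were purified after expression in E. coli BL21-CodonPlus. These were incubated at 200 nM with a blocked, double-stranded custom Agilent array for 1 h at 25 °C in a buffer containing 50 µM zinc acetate, and the array was washed. The binding signal is per-feature fluorescence intensity (arbitrary units) on an Axon 4000B scanner.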
For the sequence “GATTGATTATTGCCGCGAATATATTGTTGCACCTCGCTTTCGGAGTCACCTAGTGCAG”, the binding signal is 45700 fluorescence intensity (a.u.).

As for “TCAAAAGCTTATTGATTAATTGTAAACCATAAAACTTCAGCGGAGTCACCTAGTGCAG”, the binding signal was 6990 fluorescence intensity (a.u.).

In the case of “CGCAATGATTTCTTCTTCTTGTACCACACTGCTTCTGCTGCGGAGTCACCTAGTGCAG”, the binding signal was 20700 fluorescence intensity (a.u.).

As to “TCATGATTTGACAATGTGTTACTACAATAAATATTTGCTACGGAGTCACCTAGTGCAG”, the binding signal is 28900 fluorescence intensity (a.u.).

On to “TGAGCTGATTGATCGTCTGAAGGGTGTCTGATTGTCAAGTCGGAGTCACCTAGTGCAG”, for which the binding signal is 52800 fluorescence intensity (a.u.).

On to “ATCTTTTGAATCAATCCTAATAACCAAATAATAACCTCCACGGAGTCACCTAGTGCAG”, for which the binding signal was 3180 fluorescence intensity (a.u.).

“TTTAAATAACAGATAATTGACGTGATGAGTATGACTATATCGGAGTCACCTAGTGCAG”: the binding signal is 26800 fluorescence intensity (a.u.).

As to “ATAAATTGAAATAGTTCAAAACCCTACTTTTCAAACTTGTCGGAGTCACCTAGTGCAG”, the binding signal is 41900 fluorescence intensity (a.u.).

Take “ATTAATTAATTAACCTCTAACATTTAACTAATGCAGGTAACGGAGTCACCTAGTGCAG”: the binding signal was 56900 fluorescence intensity (a.u.).

Regarding “TGGAGATTGGAGTTTGGAGTTTGGAGAGAGAGAAATGCAACGGAGTCACCTAGTGCAG”, the binding signal is 5290 fluorescence intensity (a.u.).

As for “TCAGTGTAATTTGACTCCCTCAACGATTTTGGATGGCAGTCGGAGTCACCTAGTGCAG”, the binding signal was 5230 fluorescence intensity (a.u.).

Consider “CCTAAATTGAAAATATGAGTTAAACGGTTCATATTTTGAGCGGAGTCACCTAGTGCAG”, for which the binding signal was 10900 fluorescence intensity (a.u.).

Turning to “GCCGAAATTGACATGTGACGCCCATAGTAAAGCCCACACGCGGAGTCACCTAGTGCAG”, the binding signal is 39700 fluorescence intensity (a.u.).

In the case of “TCTTGTTGTTCAATCAGCTTGGACACTAAAATTCATGGTTCGGAGTCACCTAGTGCAG”, the binding signal was 6590 fluorescence intensity (a.u.).

“GGTTGTGCATGCACACTAATTAATTTGTGACGATTAAGTGCGGAGTCACCTAGTGCAG”: the binding signal is 3770 fluorescence intensity (a.u.).

In the case of “CAGAATGATTTGTGCTACCGGCCTCGGGGTGAGATGGAAACGGAGTCACCTAGTGCAG”, the binding signal was 14000 fluorescence intensity (a.u.).

As to “TCTAATTTATTAGAGCGCCACATGACGGCTTGAGAGCGTTCGGAGTCACCTAGTGCAG”, the binding signal is 19200 fluorescence intensity (a.u.).

For the sequence “CAAAATTTTAAATTTGATTTACGGTTGACAATAATAATAACGGAGTCACCTAGTGCAG”, the binding signal was 25200 fluorescence intensity (a.u.).

In the case of “GTCCTTCCAATCATACTACTTTTGTGTCAACCCTTTTACACGGAGTCACCTAGTGCAG”, the binding signal is 9270 fluorescence intensity (a.u.).

Take “CATGTACCATTGATAACTGGTTGACAGGATGCAAGCTGAGCGGAGTCACCTAGTGCAG”: the binding signal is 3920 fluorescence intensity (a.u.).

In the case of “TAGAAATTAGTGAAAGGAATGGAGGTAGTTTGACTTGTCTCGGAGTCACCTAGTGCAG”, the binding signal is 3460 fluorescence intensity (a.u.).

As for “CATATGATTAATTAAAATTTTATCATTTAGAACTTGAAAACGGAGTCACCTAGTGCAG”, the binding signal was 34800 fluorescence intensity (a.u.).

Consider “GAGAATTATCTAAAATAATTCGTGCAAGATAAAATCATGGCGGAGTCACCTAGTGCAG”, for which the binding signal was 3210 fluorescence intensity (a.u.).

As for “ACAATGATTGATTAATGTTTGATAGTAACAGCCATGAGAGCGGAGTCACCTAGTGCAG”, the binding signal was 58800 fluorescence intensity (a.u.).

In the case of “GATTAAACAATTTGACATGCTAATGTGATCTCTGGTGTGACGGAGTCACCTAGTGCAG”, the binding signal is 6330 fluorescence intensity (a.u.).

In the case of “TTAATTAGGCTAAATAGATTCATCTCGTGAATTAGTCCAACGGAGTCACCTAGTGCAG”, the binding signal was 18900 fluorescence intensity (a.u.).

Turning to “ATTCAAATGAATAACAAATTAACAATATTCATATGTATAACGGAGTCACCTAGTGCAG”, the binding signal was 4670 fluorescence intensity (a.u.).

As for “GATGATTAGTGCCTCAGTTATTTGAATGTCCATTATTCTGCGGAGTCACCTAGTGCAG”, the binding signal was 43900 fluorescence intensity (a.u.).

On to “TTATAATGGTTTTAATAATTGAGAGAATCAAGATATCCGGCGGAGTCACCTAGTGCAG”, for which the binding signal was 14900 fluorescence intensity (a.u.).

As for “TCATTTCTCCAATCATAGGAGCTGGCGCATTGATCGATCACGGAGTCACCTAGTGCAG”, the binding signal is 6160 fluorescence intensity (a.u.).

On to “TTCAGACGTGATTTTGAATCTTAATAGCATGCATATGAGCCGGAGTCACCTAGTGCAG”, for which the binding signal is 9270 fluorescence intensity (a.u.).

With “GCAGCTGACAGGCTTTCCCTACACCCATATCAAGAGAGCCCGGAGTCACCTAGTGCAG”, the binding signal is 4550 fluorescence intensity (a.u.).

With “AAATACTTAATTAATCACGTGTTAATGGATCGCTCCGTTTCGGAGTCACCTAGTGCAG”, the binding signal is 21600 fluorescence intensity (a.u.).

As for “AGAAGATTAATTATATACATGAACATTAATTCTGAACTACCGGAGTCACCTAGTGCAG”, the binding signal was 36300 fluorescence intensity (a.u.).

Regarding “CGTTTAAATTACATCATAAGATGGTTTTGGACGGTGGTTTCGGAGTCACCTAGTGCAG”, the binding signal is 6260 fluorescence intensity (a.u.).

Turning to “ATAAATTTAGTTAAGGACGAGTACTGTGAGTTAATCGTGTCGGAGTCACCTAGTGCAG”, the binding signal is 8040 fluorescence intensity (a.u.).

Turning to “TGCTGTTCTTAATTGCTGCATGCCATGTCTCACTTGGAAACGGAGTCACCTAGTGCAG”, the binding signal is 3590 fluorescence intensity (a.u.).

“ATAAAATTAGAACATTATCATCACGGTCATGTTTTCCATCCGGAGTCACCTAGTGCAG”: the binding signal was 11700 fluorescence intensity (a.u.).

On to “ATAGGCTGTCTTCAATTAGAGCATTTAAACATTTAATGCTCGGAGTCACCTAGTGCAG”, for which the binding signal is 8190 fluorescence intensity (a.u.).

Consider “GTATGATTAATTGAGTTTTAATTATTATAAAATTTTAAAACGGAGTCACCTAGTGCAG”, for which the binding signal was 22900 fluorescence intensity (a.u.).

In the case of “GACGATTACATCAAGTTGATAGAACCATACTAAGAAAATTCGGAGTCACCTAGTGCAG”, the binding signal is 4070 fluorescence intensity (a.u.).

On to “TTAGATAAATTTTACAATATATAACGGCTTTATTGAATGCCGGAGTCACCTAGTGCAG”, for which the binding signal is 4840 fluorescence intensity (a.u.).
